Data on 88 sequences can be found in the supplement of paper PMC11417369.

± gives the standard deviation of the averaged measurements. The list shows a part of the results.

The subject of this assay is PfAP2-EXP AP2 domain (GST-tagged). Briefly: gcPBM binding intensity (ln(normalized median fluorescence intensity)); higher = stronger DNA binding. Put shortly: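 Probes on an Agilent 4 × 180k array were primer-extended, double-stranded and 36 bp long, taken from intergenic genomic regions, with negative controls added. GST-tagged P. falciparum DNA-binding domains from E. coli, about 25 μg on average, were applied to the array for 1 h in 1× PBS containing 1% milk, 0.2 mg/ml BSA, 0.5% salmon testes DNA and 0.03% Triton X-100. Binding intensity, obtained after Alexa488 anti-GST antibody detection and a 488 nm scan, is the highest Masliner-normalised natural-log median intensity across replicate spots of either probe orientation.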
As to “GGTCATATTTTTTGCACACAAAAAAAAATATAAAAT [CACACA_site3381]”, the “gcPBM binding intensity (ln)” value was found to be 8.47 ± 0.28.
The same measure for “AATTAAACTCACACCACACACAAAAAAAAAAAAAAA [CACACA_site693]”: 8.29 ± 0.44; for “AGCAATTGTGTTTTCACACATAAATATATTCCTCAC [CACACA_site5021]”: 8.65 ± 0.43; for “AGTGTAGGTATATAAACACACATACAGATATATAAT [CACACA_site4900]”: 8.85 ± 0.41.
On to “GTATGTATGTATGTATGTACTTATGTAGTCTTAGTT [XGTACX_site1710]”, for which the “gcPBM binding intensity (ln)” value worked out at 9.24 ± 0.21.
Consider “TATTCAGGTCCAATGGTGCAATATATTTTTGTAATA [GTGCAC_site9607]”, for which the “gcPBM binding intensity (ln)” value came out at 8.93 ± 0.092.
The same measure for “TAAAAAATAAAATGGACACACACGTTCAAATTTAGA [CACACA_site2083]”: 8.46 ± 0.42; for “AAGTTTATCACAGCCACGCACACATAATATATGTAT [CACACA_site3670]”: 8.66 ± 0.63.
The same measure for “ATATATATATATAAAAGTACATGCTTATATATATAT [XGTACX_site3786]”: 9.86 ± 0.3; for “TTTAAAAATGCTACATGTACAAAATAAAATATAATA [XGTACX_site2905]”: 8.88 ± 0.48.
The same measure for “TACAAAATATATATGACACACATAAAAAAAAGTATA [CACACA_site1373]”: 8.69 ± 0.4; for “ATTTTTTTTATTCAATGTACTTTTTTTTATATATAT [XGTACX_site4978]”: 8.77 ± 0.45.
On to “TATATAAACATACATACACACATACAATAAGTAAAA [CACACA_site5118]”, for which the “gcPBM binding intensity (ln)” value stood at 8.94 ± 0.79.
The same measure for “CACCCACTAATAAACACACACATATATATATATATA [CACACA_site389]”: 10.2 ± 0.35.
The same measure for “AATAAAATGAGATGTTGTACAGTTTTGATATATGCA [XGTACX_site3052]”: 8.73 ± 0.35; for “ACCTAAGAACTATTTACACACATATACAAAATATAT [CACACA_site2459]”: 8.59 ± 0.47.
The same measure for “ATTGTTCTATGATTTGTACACACTTTTTTTTAAAAT [CACACA_site2825]”: 9.35 ± 0.74; for “AATAAAAAACTACAATATACAAAATTATTAAATCAA [GTGCAC_negctrl_site703]”: 8.4 ± 0.39; for “CATATAAAAATATGCACACACAGGAATACAAACATA [CACACA_site684]”: 8.97 ± 0.28.
In the case of “AAACGTACATAATACACACACATGTATCCATATAAA [CACACA_site5173]”, the “gcPBM binding intensity (ln)” value was found to be 8.76 ± 0.41.
The same measure for “ATTTATAATCAGGGTTGTACACTTATAGAATTTTTA [XGTACX_site4175]”: 8.33 ± 0.42; for “ATATAAATATATGGAAGTACACAAAAAAATTAAAAA [XGTACX_site8624]”: 8.83 ± 0.35.
The same measure for “AATCTTCATACCAACACATGCACAAAAGAAATAAAA [TGCATGCA_site563]”: 9.32 ± 0.35; for “CATAAGAAAATAAAAACATGCACATAAGAAATATAC [TGCATGCA_site842]”: 9.39 ± 0.23; for “TATATTTATACATATTGTACATTTTATACTTTTACA [XGTACX_site3884]”: 8.65 ± 0.4.
The same measure for “ATTATTAAAAAGATGTAAATAAATGAATATATGCTT [CACACA_negctrl_site539]”: 8.47 ± 0.39.
For “ATATAGTATAATAAAAGTACATTTTGATTTTTTCTC [XGTACX_site1797]”, the “gcPBM binding intensity (ln)” value is 8.28 ± 0.32.
The same measure for “TTCTATATATTTTAATGTACATATATGATTATTCTT [XGTACX_site8294]”: 8.72 ± 0.33; for “TATTAAGAATTTACATGTACTTGTTAAATAAGAAAA [XGTACX_site4466]”: 8.8 ± 0.29; for “TAAATAATATCTATCACACACGCATATATACATATA [CACACA_site2622]”: 8.32 ± 0.44.
“GTCGCATTTTATACAAGTACACATGAATTATACAAC [XGTACX_site2200]”: the “gcPBM binding intensity (ln)” value was 9.035 ± 0.021.
The same measure for “TTCAAAAAAATGTATACACACATAAGTATAATATAA [CACACA_site3758]”: 8.53 ± 0.49; for “TGTTTATGTATCAATTGTACAAAAAAAAAAAAAAAA [XGTACX_site1590]”: 8.26 ± 0.46; for “GATTTTTTTTTTTTTTCACACACTAATAATATTATC [CACACA_site464]”: 8.62 ± 0.37.
For “CTTATGTGCATACCTACACACTTACAGATATATATA [CACACA_site5622]”, the “gcPBM binding intensity (ln)” value amounted to 8.59 ± 0.33.
The same measure for “TTCAAATATTTTATTTGTACATAAAAAAGAAAGTTA [XGTACX_site8287]”: 8.35 ± 0.2.
The same measure for “TAGGAAGAATTACTGTGTACTAAAATATTAAAAAGT [XGTACX_site4909]”: 8.79 ± 0.22; for “ATAAATGAAAAAAAGCGTACATATAAAAAAATATAT [XGTACX_site5063]”: 8.63 ± 0.49.
The same measure for “TGTAAATAATATAATAGTACGCATATTTTTATTGAA [XGTACX_site284]”: 8.46 ± 0.35; for “ACTTACCCATTTATTACACACATAAAGGAAAATTTT [CACACA_site4873]”: 8.89 ± 0.43.
As to “TTATTATCCTATATTTCTTTTCCTTCTTCAAAATTA [CACACA_negctrl_site1314]”, the “gcPBM binding intensity (ln)” value worked out at 8.64 ± 0.35.
The same measure for “TACTATCTATACAATACACACAAAAAAAAAAAAATA [CACACA_site3981]”: 8.34 ± 0.52; for “TAAATACACTGTAGCGCACACGGCCAAAAAAAAAAA [CACACA_site1818]”: 8.79 ± 0.3.
The same measure for “TAATATCATTTATATTGTACTATAACAAAATCTATA [XGTACX_site7700]”: 8.28 ± 0.38; for “TATGTCAATTTTCATACATGCGCATAATCTTTATTT [TGCATGCA_site807]”: 8.94 ± 0.25.
The same measure for “ATAAATAAGATACGTACACACATATACAAAATATAC [CACACA_site3661]”: 8.85 ± 0.24.
Take “TATAAAACCCTACTGTTTCTTCTTTATTGATATATT [TGCATGCA_negctrl_site285]”: the “gcPBM binding intensity (ln)” value is 8.63 ± 0.5.
“GAAAGAATAAAATAAACATGCAAATAAAACATAAAA [TGCATGCA_site471]”: the “gcPBM binding intensity (ln)” value was 9.27 ± 0.25.
The same measure for “AAAGTTTTTATACATACACACCTATAAATTAAGTGC [CACACA_site7198]”: 8.24 ± 0.34; for “AATTGTAAATTGGGCACTTATAAAAATGAACAAATA [CACACA_negctrl_site1583]”: 8.72 ± 0.41.
The same measure for “TCATAAAGAACAAAGTGTACCTATATATTACATACA [XGTACX_site7595]”: 8.36 ± 0.37; for “AGGTAGTTCTGTATCACACACATATATATATATATA [CACACA_site2214]”: 10.3 ± 0.47.
The same measure for “ACTCTTAAAATGTATTGTACATAATTTTTACAAGGG [XGTACX_site6611]”: 8.75 ± 0.47; for “TTTTTTTTTTTTACCTGTACATGTCAGCAAACTTTT [XGTACX_site1171]”: 8.84 ± 0.61; for “CAAAAACGGAAGTGGTGTACCGATATTATATAAACA [XGTACX_site4962]”: 8.89 ± 0.45.
Turning to “GGAGAATAGTGGAAAACACACACGTTTGAGATATGG [CACACA_site1168]”, the “gcPBM binding intensity (ln)” value was found to be 8.78 ± 0.52.
The same measure for “AACATTATAAGACACACACACACATATATATATATA [CACACA_site8259]”: 10.1 ± 0.39; for “TTGTGTGTATGTATACATATATATATTGAGACGAAT [TGCATGCA_negctrl_site382]”: 8.94 ± 0.49; for “TTTCCATTATGATATAGTACATAAATATATGTAATA [XGTACX_site6992]”: 8.24 ± 0.16.
The same measure for “ACATATAATAAAAAATGTACACACATAAGAAAATTT [XGTACX_site6153]”: 8.57 ± 0.071.
The same measure for “AAAAAAAATATATAAACACACATATTTATATACTCA [CACACA_site4984]”: 8.11 ± 0.33; for “ACTATAAATATATAAATATATATATATATATATATA [GTGCAC_negctrl_site65]”: 10.1 ± 0.28.
Consider “CTAAATATATAAAAAAGTACAAAATAAATAATAATT [XGTACX_site2442]”, for which the “gcPBM binding intensity (ln)” value was found to be 8.8 ± 0.53.
“TATTTCTGATTATTTTGTACACATTATATATAATGC [XGTACX_site6990]”: the “gcPBM binding intensity (ln)” value is 8.7 ± 0.37.
On to “TATATATTATGACCACCACACACCTATACACATAAC [CACACA_site8773]”, for which the “gcPBM binding intensity (ln)” value came to 8.99 ± 0.44.
For the sequence “AATATAAACAGACACACACACATATAGATTTATATT [CACACA_site7382]”, the “gcPBM binding intensity (ln)” value turned out to be 8.79 ± 0.4.
The same measure for “TTTTAATGAAAACACACACACACATATATATATATA [CACACA_site5295]”: 10.3 ± 0.11; for “GAAAATAGAAAAAGCACACATATATTTTGGAATGTA [CACACA_site551]”: 8.55 ± 0.55; for “GGATAGATAATAGGGGGTACAAATATACATACATAT [XGTACX_site5089]”: 10 ± 0.38.
Regarding “AAATGAATTATATAATATATATAAATAAATAAATAA [CACACA_negctrl_site359]”, the “gcPBM binding intensity (ln)” value came to 8.46 ± 0.18.
The same measure for “TATTATATAACAAAAAGTACTTATAAGAAATATATA [XGTACX_site5467]”: 8.8 ± 0.4; for “TAATAAGTACCTTTTGCATGTGGCACGCTTTTTTTT [TGCATGCA_site573]”: 8.9 ± 0.26; for “ATATTTCATCTAGCTACACACATATAATAAATTATT [CACACA_site4094]”: 8.83 ± 0.42.
Turning to “AATGGAAAATTATTAACACACACATATAAATATATA [CACACA_site7899]”, the “gcPBM binding intensity (ln)” value was 8.5 ± 0.48.
The same measure for “TGCCAATTTTTAAAAACATGCATTATATAGAATAAA [TGCATGCA_site872]”: 8.6 ± 0.34; for “TTTTCAATATATAGAGCATGCGCATCCACAAATATG [TGCATGCA_site380]”: 8.78 ± 0.35; for “TACAACAATTTTTGCACACACCAAAACATAAAATAA [CACACA_site4964]”: 8.61 ± 0.41.
The same measure for “ATTAAAAGGGGGTTTACATGTGTGTGTGTAATATGG [TGCATGCA_negctrl_site293]”: 9.48 ± 0.65; for “TTATACATTTGTAAATAAATAGAACTGTATTTTTTT [TGCATGCA_negctrl_site397]”: 8.04 ± 0.43.
The same measure for “TATATACCGATATATACACACAAATACATAAGCTTC [CACACA_site6760]”: 8.81 ± 0.4; for “AATAATCATTTTCATAGTACGTATGATTAGAAAAAA [XGTACX_site2589]”: 8.51 ± 0.36; for “CAAAATATTTTTATAACACACATATTTATAACGTGC [CACACA_site6659]”: 8.52 ± 0.22.
As for “TTTTGATTGTTATTCGTATATTATTTTATGATTATA [CACACA_negctrl_site1593]”, the “gcPBM binding intensity (ln)” value turned out to be 8.61 ± 0.45.
As to “AAGAAAAATATTCGTGTGCACAGAAGTATATGTGTG [GTGCAC_site9814]”, the “gcPBM binding intensity (ln)” value amounted to 9.04 ± 0.28.
The same measure for “TATTGTAAGAAAGGCACACAGATAAAATTATTATAT [CACACA_site2921]”: 8.73 ± 0.46.
The same measure for “ATAATTATATGGCTAGCACACAATAAATAATTATAT [CACACA_site3815]”: 8.6 ± 0.46.
As for “ATATAAGTGTATCTAACACACAAATATATAAAAATG [CACACA_site1956]”, the “gcPBM binding intensity (ln)” value was 8.63 ± 0.33.
The same measure for “ATCATCTTTATTCAAGTGCACTGAAAATTTTTTATA [GTGCAC_site9801]”: 9.155 ± 0.021.
